The values below come from article PMC4200520 (2014).

For this test, the target named is XMAP-Ct, C-terminal coiled-coil fragment of XMAP215 (Xenopus, UniProt Q9PT63 2002-2065). In words: SPR. In general terms: Surface plasmon resonance follows binding to a sensor surface in real time, without labels.
Sequence of UniProt Q9PT63 (Q9PT63 2002-2065): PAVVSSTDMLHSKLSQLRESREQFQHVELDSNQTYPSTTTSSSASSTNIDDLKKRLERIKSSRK

B1: TD4, minimal TACC domain (TD) fragment of XTACC3 (domain or fragment)
chain: LSTSDAIVEMLKYSQKDMDAAIEAVRLEVQEKDLEVLEWKTKHEKLYLEYVEMGKIIAEFEGTITQILEDSQRQKETAKLELNKVLQEKQQVQVDLNSMETSFSELFKRLEKQKEALEGYRKNEEALKKCVEDYLVRIKKEEQRYQALKAHAEEKLNRANEEIAHVRSKAKSEATALQATLRKEQMKIQSLERSLEQKSKENDELTKICDDFILKMEKI
With B1, binding was put at a Kd of 540 nM.

The Kd is the equilibrium constant for the complex coming apart.
